Results on 112 compounds are retold here after PubChem BioAssay AID488969 (Vanderbilt High Throughput Screening Facility, 2010).

The full ranking holds about 110,000 compounds; the median of “z-score” is about -0.1, and the highest 2% start at about 2. This is one part of the list. Active and inactive are the calls of the source.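 The calls were made as follows: active = z-score in the third read window above 3 or below -3; inactive = the rest.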

The test addresses Metabotropic glutamate receptor 8 (Rattus norvegicus) (UniProt P70579). Briefly: mGluR8 Gi/Go-coupled signaling modulation – cell-based, rat, thallium flux, HTS, primary screen (AID 488969). The note with it: HEK293 rat mGluR8, GIRK (G protein-gated inwardly rectifying potassium channel) thallium flux, FluoZin2; at 10 µM; stronger effect = higher value; submaximal glutamate (EC20) added with thallium.
Chain of UniProt P70579 (P70579 whole entry, looked up): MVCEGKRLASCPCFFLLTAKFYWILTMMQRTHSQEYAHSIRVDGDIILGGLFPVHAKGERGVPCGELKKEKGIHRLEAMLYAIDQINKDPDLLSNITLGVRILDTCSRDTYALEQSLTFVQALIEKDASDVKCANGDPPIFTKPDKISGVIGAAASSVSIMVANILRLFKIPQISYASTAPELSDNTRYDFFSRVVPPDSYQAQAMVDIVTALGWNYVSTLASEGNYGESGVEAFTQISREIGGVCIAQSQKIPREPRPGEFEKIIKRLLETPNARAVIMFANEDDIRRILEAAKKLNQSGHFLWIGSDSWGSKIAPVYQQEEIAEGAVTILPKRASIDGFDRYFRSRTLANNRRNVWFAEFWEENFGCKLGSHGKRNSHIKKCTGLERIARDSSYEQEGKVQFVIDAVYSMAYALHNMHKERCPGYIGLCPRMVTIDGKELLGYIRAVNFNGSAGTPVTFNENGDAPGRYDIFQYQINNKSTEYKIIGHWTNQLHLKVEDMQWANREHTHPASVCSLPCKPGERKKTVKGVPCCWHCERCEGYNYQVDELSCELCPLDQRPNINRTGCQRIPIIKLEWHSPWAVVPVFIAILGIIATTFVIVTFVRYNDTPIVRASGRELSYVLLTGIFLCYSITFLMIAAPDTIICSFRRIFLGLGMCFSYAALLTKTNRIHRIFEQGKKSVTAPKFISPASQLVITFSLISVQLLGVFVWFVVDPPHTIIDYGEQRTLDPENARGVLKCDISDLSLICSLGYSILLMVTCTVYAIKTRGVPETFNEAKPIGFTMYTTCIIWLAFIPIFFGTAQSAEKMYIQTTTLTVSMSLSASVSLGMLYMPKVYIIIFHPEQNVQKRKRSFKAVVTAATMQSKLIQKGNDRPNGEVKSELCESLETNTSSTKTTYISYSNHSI
With `COc1cc(Cn2cnnn2)ccc1O`, the z-score is -0.0623.

Regarding `CC(C)C(=O)N1CCN(c2ccccc2NC(=O)c2cccc(Cl)c2)CC1`, the z-score is -0.419.

For the compound `COc1ccc(NC(=O)C(F)(F)F)cc1OC`, the z-score is -0.387.

`CCOc1ccc(OCC)c(NC(=O)CSc2nc3ccccc3c(=O)n2C)c1` showed a z-score of 0.907.

In the case of `C/C(=N\NC(=O)CNc1cccc2ccccc12)c1ccc(Br)s1`, the z-score is -0.245.

As to `COc1ccc(NC(=S)NC(NC(=O)c2cccc(Cl)c2)C(Cl)(Cl)Cl)c([N+](=O)[O-])c1` (configuration not stated), the z-score was -0.619.

In turn, `COc1ccc(-c2csc(NC(=O)C3CCCCN3S(=O)(=O)c3ccccc3)n2)cc1` (configuration not stated) came in with a z-score of 1.82.

Consider `O=C(Nc1ccc(/C=C/c2nc3ccccc3o2)cc1)c1c(F)cccc1F`, for which the z-score is -0.151.

`CCC(C)N(C(=O)Cn1nnc2ccccc21)C(C(=O)Nc1ccc(F)cc1)c1cccc(OC)c1` (configuration not stated) showed a z-score of -0.319.

Compound `COc1cccc(NC(=O)CCc2nc(-c3ccccc3F)no2)c1` had a z-score of -0.45.

For the compound `CC(C)(C)c1cnnn1-c1ccc(-c2csc(N)n2)cc1`, the z-score is -0.0644.

`Nc1c(C(=O)Nc2ccc(Cl)cc2)oc2ccccc12` registered a z-score of 0.273.

With `Cc1cc(C)cc(NC(=O)CSc2nnc(Cc3cccn3C)n2-c2ccc(F)cc2)c1`, the z-score came out at 0.202.

The compound `CCN1C(=O)/C(=C/N2CCc3ccccc32)SC1=S` had a z-score of -0.279.

Compound `NS(=O)(=O)c1ccc(CCNC(=O)COC(=O)C2CCCN2C(=O)c2cccs2)cc1` (configuration not stated) registered a z-score of -0.0687.

For `C[N+]1(CCOc2ccc([N+](=O)[O-])cc2)CCOCC1`, the z-score was -0.159.

In the case of `CS(=O)(=O)N1N=C(c2ccc3nccnc3c2)CC1c1ccccc1` (configuration not stated), the z-score was -0.111.

Compound `O=C(CCn1[nH]c(=O)c2ccccc2c1=O)N1CCOCC1` gave a z-score of -0.82.

For the compound `O=c1ccc(=O)n2n1CC(O)C2`, the z-score was determined as 0.375.

In turn, `O=C(COC(=O)c1ccc(Sc2ccccc2)c([N+](=O)[O-])c1)NC1CCCc2ccccc21` (configuration not stated) displayed a z-score of -0.000641.

As to `CC(C)CC(=O)N1CCN(S(=O)(=O)c2ccccc2)CC1`, the z-score is 0.164.

Consider `CCCC1=C(C(=O)OCC)C(c2ccc(N(C)C)cc2)n2ncnc2N1` (configuration not stated), for which the z-score stood at 0.517.

In turn, `Oc1cc(-c2ccccc2)c2ccccc2c1` returned a z-score of -0.211.

Turning to `CCOC(=O)N1CCN(CC(=O)Nc2c(C(=O)OC)[nH]c3cc(C)ccc23)CC1`, the z-score was -0.466.

With `CN(NC(N)=O)c1ncc(C(F)(F)F)cc1Cl`, the z-score is -0.193.

As for `CCCCc1ccc(-c2nc(N)n[nH]2)cc1`, the z-score came out at 2.99.

As to `O=C(c1ccccc1Oc1ccccc1)N1CCN(c2ccc(F)cc2)CC1`, the z-score is -0.151.

Compound `O=[N+]([O-])c1ccc(/C=N/n2c(-c3cccnc3)n[nH]c2=S)cc1` yielded a z-score of -0.131.

`Cc1ccc(NC(=O)CC2Oc3ccccc3NC2=O)c(C)c1` (configuration not stated): the z-score is 0.738.

In the case of `CCC(C)(C)C1CCC(=NNC(=O)c2ccc(Br)o2)CC1` (configuration not stated), the z-score worked out at 0.389.

`CCC(C)OC(=O)C1=C(C)NC2=C(C(=O)C(C(=O)OC)C(C)C2)C1c1ccc(N(C)C)cc1` (configuration not stated) registered a z-score of -0.149.

Take `CC(=O)Oc1ccc2ccccc2c1C(NC(=O)C(C)C)c1cccc([N+](=O)[O-])c1` (configuration not stated): the z-score is -0.172.

For the compound `CCCN(CCO)Cc1cccc(Cl)c1`, the z-score was -0.0644.

In turn, `O=C(/C=N/O)NCc1ccncc1` returned a z-score of 0.0144.

`Cc1cc(=O)oc2cc(OCc3ccc(C(=O)N4CCN(c5ccccc5)CC4)cc3)ccc12` returned a z-score of -0.279.

Regarding `CN(C)c1ccc(N=Nc2ccccc2C(=O)OCC(=O)N(C)C2CCCCC2)cc1`, the z-score is -0.361.

In the case of `O=P(Cc1cc[n+]([O-])cc1)(c1ccccc1)c1ccccc1`, the z-score was -0.124.

Regarding `CN(C)c1ccc(-c2nc3ccccc3n2C)cc1`, the z-score was found to be 1.17.

For the compound `Cc1ccc(-c2noc(-c3ccccc3Br)n2)cc1`, the z-score was 0.762.

The compound `CN(C)C(CNC(=O)c1cccc(S(=O)(=O)N(C)C)c1)c1ccccc1` (configuration not stated) displayed a z-score of -0.131.

In the case of `COc1ccccc1NC(=O)c1ccc(NS(C)(=O)=O)cc1`, the z-score is -0.372.

Take `Cc1cc(=O)[nH]c(SCCOc2cccc(C(F)(F)F)c2)n1`: the z-score is -1.03.

`COCc1ccc2oc(C(=O)O)cc2c1` came in with a z-score of -0.0899.

In turn, `Cc1nn(-c2ccccc2)c(N)c1Sc1ccc([N+](=O)[O-])cc1` gave a z-score of -0.389.

Consider `O=C(Nc1ccc(Br)cc1)c1cccc(NC(=O)C2C3CC4OC(=O)C2C4C3)c1` (configuration not stated), for which the z-score was -0.671.

`CC(=O)c1cccc(NC(=S)NC(=O)C(C)C)c1` displayed a z-score of -0.0531.

`COCCSc1nnc(NC(=O)C2CCCCC2)s1` returned a z-score of -0.224.

In turn, `C/C(=N\NC(=S)NCCc1ccccc1)c1ccc(C)cc1` registered a z-score of 1.67.

The compound `Cc1noc(NS(=O)(=O)c2ccc(NC(=O)CSc3nc4c(cc3C#N)CCCCC4)cc2)c1C` displayed a z-score of 0.295.

Compound `O=C(Nc1cc([N+](=O)[O-])ccc1F)C1CC1` showed a z-score of -0.162.

In the case of `COc1cc(Cl)c(C)cc1NC(=O)CCCN1C(=O)CCC1=O`, the z-score was -0.613.

As for `O=C(NCc1ccco1)c1ccc2c(=O)n(Cc3ccco3)c(SCC(=O)N3CCCC3)nc2c1`, the z-score is -0.92.

`CCOCCn1c(=NC(=O)c2cc3ccccc3oc2=O)sc2cc(S(N)(=O)=O)ccc21`: the z-score was -0.105.

In the case of `CSc1nc(-c2ccccc2)nc2c1COC(C)(C)C2`, the z-score was -0.367.

`COc1ccc(-n2c(=O)c3ccccc3c3ccccc3c2=O)c(OC)c1` yielded a z-score of 0.505.

Compound `CCC(=O)N1CCN=C1SCc1ccccc1` returned a z-score of 0.616.

Compound `CCn1c(/C=N/n2cnnc2)nc2ccccc21` showed a z-score of 0.0863.

As to `COc1ccc(NS(=O)(=O)c2ccc3oc(SCc4ccc(F)cc4)nc3c2)cc1`, the z-score turned out to be 1.44.

In turn, `CS(=O)(=O)N1CCN(C(=O)Cc2cccs2)CC1` came in with a z-score of 0.615.

With `COc1ccc(Cn2c(=O)[nH]c3cc(C(=O)N4CCN(Cc5ccccc5)CC4)ccc3c2=O)cc1`, the z-score amounted to 0.367.

`Cc1ccc(NC(=O)CSCC(=O)NC2CCCCC2)cc1`: the z-score was -0.0477.

With `CCOC(=O)c1c(-c2cccs2)csc1NC(=O)C(C)(C)C`, the z-score was -0.0069.

The compound `COc1cccc(C(=O)Nc2cccc(OC(C)=O)c2)c1` displayed a z-score of -0.0655.

On to `CCCn1c(/C=C/c2ccccc2)nc2ccccc21`, for which the z-score was -0.265.

For `O=C(N/N=C/c1ccc(Sc2nc3ccccc3s2)c([N+](=O)[O-])c1)c1ccccn1`, the z-score was -0.00781.

The compound `CCOC(=O)c1cc2sccc2n1CC(=O)N1CCCC1` yielded a z-score of -0.278.

Take `Cn1c(SCCN2CCCCC2)nnc1-c1ccccc1Br`: the z-score turned out to be 0.248.

Take `CCCCN(C)C(=O)c1sc2ncn(CC)c(=O)c2c1C`: the z-score is 0.571.

For `c1ccc(-c2csc3ncn4nnnc4c23)cc1`, the z-score is -0.177.

In turn, `O=C1C2CC=CCC2C(=O)N1c1n[nH]c(-c2ccccc2)n1` (configuration not stated) displayed a z-score of 1.11.

Consider `c1coc(-c2nnc3n2C2(CCCC2)Cc2ccccc2-3)c1`, for which the z-score was -0.581.

Compound `COc1nc(N(CC(N)=O)S(=O)(=O)c2ccccc2)nc(C)c1Cl` yielded a z-score of 0.0517.

As for `Cc1ccc(S(=O)(=O)CNC(=O)c2ccccc2)cc1`, the z-score was 0.081.

With `Cc1ccc(N(CC(O)Cn2nc(C)cc2C)S(=O)(=O)c2ccc3ccccc3c2)cc1` (configuration not stated), the z-score is -0.205.

As for `COC(=O)C(C)Sc1nnc(Cc2cc(=O)[nH]c(=O)[nH]2)n1-c1ccc(Cl)cc1` (configuration not stated), the z-score is -0.153.

For `CCOc1ccc(OCc2ccc(C(=O)Nc3cccc(C)n3)o2)cc1`, the z-score is -0.284.

In turn, `Cc1ccc(O)c(NC(=O)CCC2CCCCC2)c1` gave a z-score of -0.0619.

For `CC(C)c1ccc(/C=C/C(=O)NNC(=O)c2cccnc2)cc1`, the z-score is -0.0443.

On to `CCOC(=O)C1CCN(S(=O)(=O)c2c(C)n[nH]c2C)CC1`, for which the z-score was -1.56.

`Cc1cc(-c2ccc(F)cc2)nc2cc(C(N)=O)nn12` registered a z-score of 0.242.

As for `CC(C)c1ccc(N(C(=O)C(F)(F)F)C(C(=O)NC2CCCCC2)c2ccncc2)cc1` (configuration not stated), the z-score is -0.106.

With `CN1CCCN(Cc2ccc(Cl)cc2Cl)CC1`, the z-score was determined as 0.524.

Take `CC(=O)/C(=N\Nc1ccc(C)cc1)Sc1nncn1C`: the z-score was found to be 0.125.

For the compound `O=C(CCCn1c(=S)[nH]c2ccccc2c1=O)NCc1ccco1`, the z-score was found to be 0.0361.

`O=C1CN(C(=O)CSc2nc(-c3ccc(Cl)cc3)cs2)c2ccccc2N1` displayed a z-score of -0.0789.

`CCCCn1c(N)c(C(=S)NC(=O)CC(C)C)c(=O)n(C)c1=O`: the z-score is active: 3.59.

On to `CCCOc1ccc(C(=O)NNC(=S)NC(C)=O)cc1`, for which the z-score is 0.435.

`Cc1cc(C)c(Cn2c(=O)n(CCCC(=O)NCc3ccco3)c(=O)c3ccccc32)c(C)c1`: the z-score was -0.0113.

The compound `O=C(NCCc1c[nH]c2ccccc12)C(F)(F)F` displayed a z-score of -0.0521.

For the compound `O=C(Nc1ccc2c(c1)OCCO2)C1CCCN(S(=O)(=O)c2cnc[nH]2)C1` (configuration not stated), the z-score was -0.0274.

For the compound `Cc1noc(C)c1S(=O)(=O)N1CCC(C(=O)NCCc2ccc(S(N)(=O)=O)cc2)CC1`, the z-score came to 1.52.

Compound `CC(C)N(Cc1nc(-c2ccc(Cl)cc2)no1)C(=O)CN(C)S(=O)(=O)c1ccc(Cl)cc1` showed a z-score of -0.125.

On to `CCCCCCCCCCCCCCCC[n+]1cccc2ccccc21`, for which the z-score was determined as 0.977.

Compound `CC(=O)c1c(C)c2c(n1CCN(C)C)CCCC2` returned a z-score of -1.8.

For `O=C(NCCCN1CCOCC1)c1cccnc1`, the z-score is -0.0295.

`CCOc1ccccc1NC(=O)/C(C#N)=C/c1c(C)nn(-c2ccc(F)cc2)c1Cl` gave a z-score of -0.00825.

`Cc1cccc(C)c1NC(=O)CS(=O)CC(=O)NC1CCN(Cc2ccccc2)CC1` (configuration not stated) yielded a z-score of -0.159.

The compound `COC(=O)N(C)c1ccccc1C(=O)N1CCOCC1` gave a z-score of 0.084.

The compound `Cc1cc(CCCCCCCCc2cc(C)cc(=O)o2)oc(=O)c1` showed a z-score of -0.454.

`O=S(=O)(/N=C(/Nc1ccc(F)c(F)c1F)c1ccccc1)c1ccccc1` gave a z-score of -0.125.

`CCN1CCCC1CNC(=O)C(=O)Nc1ccc(OC)cc1` (configuration not stated): the z-score stood at 0.521.

The compound `CCCC1Cc2c(sc3ncnc(N)c23)CO1` (configuration not stated) gave a z-score of 1.57.

For the compound `Clc1ccc(-c2noc(CCCc3ccccc3)n2)cc1`, the z-score was -0.0738.

For the compound `Cc1cc(NC(=O)CN2CCN(c3ccccc3O)CC2)no1`, the z-score came out at 0.0808.

Regarding `Cc1ccc(NC(=O)/C(=C\c2cccs2)NC(=O)c2ccccc2)cc1`, the z-score is -0.33.

The compound `O=C(CCn1c(=O)oc2ccccc21)Nc1nc2ccccc2s1` showed a z-score of -0.202.

The compound `COc1cc(S(=O)(=O)N2CCCCC2)ccc1NC(=O)c1ccc(F)cc1` showed a z-score of -0.221.

The compound `O=C(COC(=O)C1(c2ccc(F)cc2)CCCC1)N1CCN(C(=O)c2ccco2)CC1` registered a z-score of 0.381.

In turn, `COc1ccc(N2CCN(S(=O)(=O)c3ccc(Cl)c(C(F)(F)F)c3)CC2)cc1` displayed a z-score of 0.388.

`O=C(Cc1ccc(F)cc1)Oc1ccc(C(=S)N2CCCC2)cc1` showed a z-score of -0.715.

In turn, `Cc1ccc(S(=O)(=O)NCC(=O)OCC(=O)c2c(N)n(C)c(=O)n(C)c2=O)cc1` gave a z-score of 1.7.

As to `O=C1CCC(C(=O)Nc2ccc(OC(F)F)cc2)N1` (configuration not stated), the z-score stood at 0.952.
